Laboratory results reported in ChEMBL document CHEMBL4888484, “Replenishing the malaria drug discovery pipeline: Screening and hit evaluation of the MMV Hit Generation Library 1 (HGL1) against asexual blood stage Plasmodium falciparum ,using a nano luciferase reporter read-out” (2022).
About 540 (0.36%) of roughly 150,000 compounds showed an effect of 50% or more. The list shows a part of the results.

system: Plasmodium falciparum; test: Primary screen in NF54 nanoGlo assay, in single point, at 2uM, 72h; a lower Z score goes with more inhibition; format: functional, Erythrocyte; conditions: timepoint 72 hour

SMILES | % Inhibition [%] | Z score
COc1ccc(CC(=O)N2CCCN(c3nnc4cccc(C)n34)CC2)cc1 | -10 | 0.96
CC(C)(Oc1ccc2c(c1)CCC2)C(=O)NC[C@]1(O)CCCNCC1 | -6 | 0.79
COc1ccc(CN2CCCN(C(=O)c3ccncc3)[C@H](c3nc(C)n[nH]3)C2)c(OC)c1 | -10 | 1.81
COCCn1ccc(=O)c(OCC(=O)Nc2ccccn2)c1C | -1 | 0.14
CCC(NC(=O)NC1CCCN(CCOC)C1)c1nccs1 (stereo unspecified) | -2 | 0.43
Cn1ccnc1[C@@H](NC(=O)c1ccnn1C(F)F)C(C)(C)CO | 40 | -4.58
c1cnc(N2CCN(c3ccc(-c4nc(C5CC5)no4)cn3)CC2)cn1 | -16 | 2.01
CC(C)c1cc(C(=O)N2CCC(CCC(=O)N(C)Cc3ccccc3)CC2)on1 | 10 | -1.12
CCc1nnc(NC(=O)c2c(C)nn(C)c2C)s1 | -10 | 1.55
COc1ccc(S(=O)(=O)N[C@H](C(=O)N2CC[C@@]3(O)CCCC[C@H]3C2)c2ccccc2)cc1 | -11 | 1.43
Cc1noc(-c2cn(C3CCN(C(=O)c4cccc(Br)c4)CC3)nn2)n1 | -6 | 0.64
O=C(c1cscn1)N1CCC(F)(F)C1 | 4 | -0.5
COc1ccc(C)cc1S(=O)(=O)[C@H]1CS(=O)(=O)C[C@@H]1NCc1ccc2c(c1)OCO2 | -1 | 0.18
CC[C@H]1CCN(C(=O)NC2CC(OC)(OC)C2)C1 | -7 | 0.8
CCNC(=O)c1n[nH]c2c1CN(C(=O)c1cc(F)cc(F)c1)CC2 | 2 | -0.39
CC(=O)N1CC[C@H](CN(C)c2ccc(Br)cc2C#N)C1 | 0 | 0
Cc1nc(CN(C)Cc2ccccc2O[C@@H](C)C(=O)O)cs1 | 5 | -0.99
O=C(Nc1ccc(N2CCN(C(=O)c3ccc(Cl)cc3Cl)CC2)nc1)c1ccc(F)cc1F | -16 | 2.95
CC(C)Oc1cccc2c1c(NC(=O)c1ccon1)nn2Cc1ccccc1 | -13 | 2
N#Cc1cccnc1N[C@H]1CCc2nnc(Cc3ccccc3)n2C1 | -15 | 1.5
COc1ccc(-c2nn(-c3ccccc3C)cc2CNCc2ccc(C)o2)cc1F | 6 | -1.11

SMILES | % Inhibition [%] | Z score
Cc1nn(CCC#N)c(C)c1[C@@H]1C=C[C@@H](NC(=O)NCc2ccccc2)C1 | 28 | -3.17
Cc1ccc(CCC(=O)N2CCC(n3nnc4c3CCCC4)CC2)o1 | -22 | 1.83
CCS(=O)(=O)N1CC(CNC(=O)N2CCCC(C)(C)CC2)C1 | -8 | 0.88
Cc1cc(-c2nc(-c3ccc(C(=O)N(C)C)nc3)no2)sc1C | -10 | 1.46
Cn1cccc1-c1nc(-c2cnccn2)no1 | -19 | 2.1
O=C1C[C@H](c2nc(-c3cc4ccccc4o3)no2)CN1C1CCCC1 | -15 | 1.92
CC(=O)Nc1c(-c2ccccc2)c(C)nn1-c1ccc(C(=O)Nc2ccc3c(c2)OCCO3)cc1 | 13 | -1.5
CC[C@H](C)NC(=O)CC1CCN(C(=O)c2[nH]c(C)cc2C)CC1 | -7 | 0.58
CC(C)Cc1nsc(N[C@@H](CO)c2cccnc2)n1 | 4 | -0.47
CN(Cc1cccc(O)c1)c1cc(C2CC(N)C2)ncn1 (stereo unspecified) | -15 | 2.83
CC1CCCCC1NC(=O)c1csc(N)n1 (stereo unspecified) | -9 | 1.27
Cc1ccc(C(=O)N2CCN(c3nc4ccccc4c4nnc(-c5cccc(C)c5)n34)C[C@@H]2C)cc1 | -1 | 0.08
COc1ccc(CNC(=O)Cn2c(C)cc(C)c(-c3nc(-c4ccc5c(c4)OCO5)no3)c2=O)cc1 | 7 | -1.02
Cc1ccc(CN2CCN(CC#Cc3ccccc3)C[C@@H]2CCO)o1 | -5 | 0.78
Cc1ccc([C@H]2CN(C(=O)COCC(F)(F)C(F)F)C[C@@H]2N(C)C)cc1 | 7 | -1.05
CN1CC[C@H](N2CC3(CCC2=O)CCN(C/C=C/c2ccccc2)CC3)C1 | -15 | 1.66
COc1cccc(CN2CCC3(CC2)c2nc[nH]c2CCN3C(C)=O)c1 | 0 | 0.02
c1nc(N2CCOCC2)ncc1CNc1ccc2c(c1)OCCCO2 | -1 | 0.1
Cc1cccc(OC2CN(c3cc(C(C)C)nc(N)n3)C2)c1 | -23 | 2.31
Cc1cc(F)ccc1S(=O)(=O)N1CC[C@H]2[C@H](C1)OCc1cnnn12 | -11 | 1.1
CC(C)C(CNC(=O)N1CCOC(C(=O)O)C1)Cc1ccccc1 (stereo unspecified) | -8 | 1.51

SMILES | % Inhibition [%] | Z score
CCc1nnc2ccc(S(=O)(=O)Nc3ccc(Cl)cc3)cn12 | 36 | -0.99
Cc1cc(-c2ccc(C(=O)N3CCS(=O)(=O)CC3)cc2)cn2ccnc12 | -26 | 2.74
Cc1cccc(OC2CCCCC2NC(=O)N(C)CC2CC(O)C2)c1 (stereo unspecified) | 4 | -0.8
O=C(Cn1cnc2ccccc2c1=O)N[C@H](c1ccc(F)cc1)C1CCCC1 | -9 | 1.22
CN(Cc1ccccc1C(=O)O)[C@H](c1ccccn1)C1CC1 | 4 | -0.58
COCCNC(=O)[C@H](CC(C)C)Nc1nccc(C(F)(F)F)n1 | -3 | 0.27
Cc1cc(NC(=O)N2CCCC2)nn1C | 11 | -1.23
CNC(=O)c1cc(S(=O)(=O)N(C)C2(CO)CCC2)cn1C | -3 | 0.5
CN(CCc1cccs1)C(=O)N(c1ccccn1)C1CCCCC1 | -9 | 1.1
COc1ccc(-c2nc(C)cc(C)c2CNC(=O)c2ccco2)cc1 | -2 | 0.33
COc1ccc(C(=O)N2CCc3cc(S(=O)(=O)NC4CCCC4)ccc32)c(OC)c1 | -7 | 0.88
O=c1nc(C2CCN(Cc3nnn(CC(F)(F)F)n3)CC2)[nH][nH]1 | -7 | 0.81
CCCS(=O)(=O)NCc1cncc(-c2cnn(C)c2)c1 | -3 | 0.55
O=C(c1ccc[n+]([O-])c1)N1CCN(c2nccn3nc4c(c23)CCCC4)CC1 | -14 | 1.82
Cc1ccc([C@H](C)NC(=O)c2nccnc2N)o1 | -5 | 0.4
CS(=O)(=O)N1CCC(C(=O)N2CCN(c3cnsn3)CC2)CC1 | 16 | -3.29
CO[C@@H](C)C(=O)N(Cc1ncc[nH]1)c1cncc(Br)c1 | 2 | -0.29
CCOC(=O)Cn1c(=O)n(C[C@H]2CCCO2)c2nc(-c3ccc(CC)cc3)nc(C(N)=O)c21 | 1 | -0.21
N#Cc1nc(OCC2CC2)ccc1Cl | -6 | 1.03
CN1CC[C@H](NC(=O)c2cn(C3CCCCC3)nn2)[C@H](Cc2ccccc2)C1 | -13 | 1.68
O=C(C[N+]1(CC#Cc2ccccc2)CCOCC1)c1ccc(Cl)cc1 | 8 | -1.31

SMILES | % Inhibition [%] | Z score
CN(Cc1nc(-c2c(F)cccc2F)cs1)CC1(O)CCC1 | -12 | 1.25
Cc1cc(S(=O)(=O)Nc2nccc(C3CC3)n2)ccc1Cl | -5 | 0.48
COc1ccc(N([C@@H](C)C(N)=O)S(C)(=O)=O)cc1OC | 16 | -2.94
CC(NC1CCCN(Cc2ccc(F)cc2F)C1=O)C1CCOC1 (stereo unspecified) | -4 | 0.48
Cc1oc(C2CCN(C(=O)c3cc(F)ccc3Cl)CC2)nc1C(=O)N1CCOCC1 | -5 | 0.74
N[C@H]1C[C@H](c2cc(N3CCC4(CCCC4)C3)nc(C3CC3)n2)C1 | 32 | -3.07
Cc1ccccc1C(=O)N1[C@H](C(=O)N2CCCC2)COC12CCN(C(=O)Cc1ccccc1)CC2 | 12 | -1.59
Cc1c(C(=O)O)sc2ncnc(N[C@H]3CCCc4ccccc43)c12 | -11 | 1.83
Cc1cc(C(=O)N(Cc2ccoc2)C2CCCCC2)no1 | 4 | -0.62
Cc1nn(C)c2nc(NCc3ccno3)sc12 | -18 | 1.79
O=C(N/C(=N/c1cccc(C(F)(F)F)c1)NCc1ccccn1)c1ccccc1 | -12 | 1.08
Cc1ccc(S(=O)(=O)N(C)C)c(Br)c1 | -9 | 1.23
CCOc1ccccc1CS(=O)(=O)[C@@H](C)C(=O)NC | -10 | 1.51
O=C(Cn1cncn1)N(Cc1ccc2c(c1)OCO2)c1ccccc1 | -5 | 0.89
CCOC(=O)N1CCN(C(=O)C[C@]2(c3ccccc3)CC(=O)N(CCc3ccccn3)C2=O)CC1 | -5 | 0.98
CCN1CCCN(S(=O)(=O)c2ccc3c(c2)CCC3)CC12CCOCC2 | 0 | 0.02
Cc1nn(CC(=O)Nc2ccc3c(c2)C(=O)N2CCC[C@H]2C(=O)N3)c(C)c1Br | 9 | -1.21
COc1cc(C(=O)NCc2ccc(Cl)s2)ccc1OC1CCN(C)CC1 | -1 | 0.14
O=C(N[C@H]1CCCn2ncnc21)c1c(F)ccc2c1OCO2 | 3 | -0.44
Cc1ccc(-n2cc3c(N4CCC(C(=O)NCc5ccc(Cl)cc5)CC4)ncnc3n2)cc1 | 20 | -1.87
